PubChem BioAssay AID1508623 (National Center for Advancing Translational Sciences (NCATS), 2021)
In all, about 48,000 compounds went through this assay and about 450 (0.94%) were called active. Inconclusive results (about 19%) are left out. Calls come from the whole dose curve; as a rule, active = well fitted inhibition curve with a large enough effect; inconclusive = small, poorly fitted or top-dose-only effect; inactive = no such curve, though single readings can be large or run the other way. This is one part of the list.

Assay: Primary qHTS for Identification of Small Molecule Inhibitors of Huntingtin Promoter Activity; note: nearly all actives have a fitted effect of over 50% in size
Conditions: HEK293 HTT promoter firefly luciferase reporter (activity 0% = vehicle and -100% = no light), 24 h; series mostly up to 57.5 µM; activity change, negative = inhibition: at the top concentration
Summary of the method: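 Quantitative HTS used concentration series of up to 57.5 uM final on HEK293 luciferase reporter cells, 24 h at 37 degrees C. Readout was Dual-Glo firefly luminescence.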

Activity change, negative = inhibition, inactive:
CCN(C(=O)c1cn(C)c(=O)c2ccccc12)c1cccc(C)c1 -11.6%, O=C(CCc1ccccc1)NCc1ccc2c(c1)CCN2C(=O)c1ccccc1 -7.83%, CC(=O)N1CCc2c(sc3c2c(=O)n(CCc2ccccc2)c(=O)n3CC(=O)Nc2ccccc2F)C1 -8.35%, COc1ccc(-n2c(SCC(=O)c3ccc(Cl)cc3)nc3c([nH]c4ccccc43)c2=O)cc1 -1.38%, COc1cccc(NC(=O)Cn2c(=O)n(-c3ccccc3)c(=O)c3ccc(C(=O)NCc4ccc5c(c4)OCO5)cc32)c1 -22%, COc1ccccc1N1CCN(c2ccc(=O)n(CC(=O)Nc3cc(F)ccc3C)n2)CC1 -0.83%, CCc1ccc(NC(=O)CN2C(=O)C3CCCN3c3ccc(S(=O)(=O)N(CC)CC)cc32)cc1 (stereo not given) -20.1%, Cn1cc(S(=O)(=O)N2CCCCCC2)cc1C(=O)N1CCN(c2ccccc2F)CC1 -24.3%, CCC(Cc1c(I)cc(I)c(N)c1I)C(=O)O (stereo not given) -7.9%, Cc1ccccc1Nc1sc(C(=O)c2ccccc2)c(N)c1S(C)(=O)=O -27.5%, Cc1cc(NC(=O)CSc2nc(-c3cccc(F)c3)nc3c2c(=O)n(C)c(=O)n3C)no1 -12.1%, CCc1ccc(NC(=O)Cn2c(=O)n(CCCC(=O)NCc3ccccc3Cl)c(=O)c3ccccc32)cc1 -4.72%, CCOC(=O)c1ccc(N2CC3=C(C2=O)C(c2ccc(OC)cc2)NC(=O)N3C)cc1 (stereo not given) -13.2%, COc1ccc2c(Sc3ccc(C)cc3)c(C(=O)NCC(C)c3ccccc3)[nH]c2c1 (stereo not given) -4.98%, COc1ccc(N(CC(=O)N2CCN(c3ccccc3F)CC2)S(=O)(=O)c2c(C)noc2C)cc1 -9.03%, Cc1ccc(CNC(=O)c2cc3c(=O)oc4ccc(C)cc4c3s2)cc1 -5.58%, CN1CCc2cccc3c2[C@H]1Cc1ccc(O)c(O)c1-3 -2.71%, CCCNC(=O)Cn1nc(-c2ccc(C)c(C)c2)c2cnc3ccc(OC)cc3c21 -12%, COc1ccccc1NC(=O)Cn1cnc2ccc(S(=O)(=O)N3CCC(C)CC3)cc2c1=O -16.1%, C[C@H](NC(=O)Cc1cc(F)cc(F)c1)C(=O)N[C@H](C(=O)OC(C)(C)C)c1ccccc1 -8.15%, COc1ccc(NC(=O)Cn2c(=O)n(Cc3ccco3)c(=O)c3sc4ccccc4c32)c(OC)c1 -28.1%, CCOC(=O)c1ccc(OC(=O)c2cn(-c3ccc(C)cc3)c(=O)c3ccccc23)cc1 -10.2%, Cc1nn(-c2ccccc2)c(-n2cccc2)c1C(=O)N1CCN(c2ccccc2)CC1 -19%, COCCCN1C(=O)c2[nH]nc(-c3cc(C)ccc3O)c2C1c1ccc(F)cc1 (stereo not given) -25.3%, Cc1ccccc1NC(=O)C(Cc1ccccc1)N1Cc2ccccc2C1=O (stereo not given) -15.4%
